# Assay results taken from the supplement of paper PMC7826260.
# Some of the results follow. Cleavage of a single-stranded DNA pool by Rep nickase domains was read by sequencing at 3 µM enzyme and 37 °C for 1 h; the strands have 90 letters, of which the middle is given. Uncut reads are compared with the no-enzyme pool on a log2 scale; more negative means more cut, near 0 not cut, and no call is made. Reads are scaled to the total; values above 0 arise when much of the pool is cut.
# Experiments:
# Assay in all cases: uncleaved DNA left, log2 of reads against the no-enzyme library (log2 ratio); higher = less cleavage (more negative = more Rep cleavage of the k-mer); sequences stand for … in CTCGTCCG…ACCGGAGA
# [1] = tested on: T1, Rep nickase domain of Muscovy duck circovirus
# T1 sequence (Rep 1-111, printed without the tag): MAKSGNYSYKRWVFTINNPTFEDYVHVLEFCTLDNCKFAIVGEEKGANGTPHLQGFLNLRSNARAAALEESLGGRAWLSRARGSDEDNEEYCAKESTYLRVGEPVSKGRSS
# Method: (§1)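 A pool of 90-nt single-stranded DNAs with seven random bases just before the constant AC of the nick site (name = the seven bases) was cut by 3 µM recombinant His6-SUMO-tagged Rep nickase domain (300 nM DNA, 50 mM HEPES pH 8.0, 50 mM NaCl, 1 mM MnCl2, 1 h, 37 °C, three replicates). Uncut DNA was amplified and sequenced.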
# [2] = tested on: T2, Rep nickase domain of banana bunchy top virus
# T2 sequence (Rep 1-94, printed without the tag): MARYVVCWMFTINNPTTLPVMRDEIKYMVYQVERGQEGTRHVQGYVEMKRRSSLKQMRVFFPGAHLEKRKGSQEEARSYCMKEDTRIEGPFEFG
# Method: as §1
# [3] = tested on: T3, Rep nickase domain of cabbage leaf curl virus
# T3 sequence (Rep 1-116, printed without the tag): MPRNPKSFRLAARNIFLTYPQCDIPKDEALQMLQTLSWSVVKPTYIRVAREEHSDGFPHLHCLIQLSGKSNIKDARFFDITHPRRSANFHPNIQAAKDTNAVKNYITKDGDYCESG
# Method: as §1
# [4] = tested on: T4, Rep nickase domain of chickpea chlorotic dwarf virus
# T4 sequence (Rep 1-124, printed without the tag): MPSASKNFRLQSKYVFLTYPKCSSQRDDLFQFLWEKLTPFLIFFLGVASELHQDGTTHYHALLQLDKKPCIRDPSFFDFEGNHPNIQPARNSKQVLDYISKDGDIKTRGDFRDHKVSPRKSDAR
# Method: as §1
# [5] = tested on: T5, Rep nickase domain of faba bean necrotic yellows virus
# T5 sequence (Rep 1-98, printed without the tag): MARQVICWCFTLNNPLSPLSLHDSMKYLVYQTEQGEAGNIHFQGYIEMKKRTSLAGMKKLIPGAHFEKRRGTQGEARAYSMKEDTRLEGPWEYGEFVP
# Method: as §1
# [6] = tested on: T6, Rep nickase domain of maize striate mosaic virus
# T6 sequence (Rep 1-117, printed without the tag): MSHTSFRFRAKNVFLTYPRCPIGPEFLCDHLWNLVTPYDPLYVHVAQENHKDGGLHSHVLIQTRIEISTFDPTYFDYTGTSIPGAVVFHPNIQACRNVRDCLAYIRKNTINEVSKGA
# Method: as §1
# [7] = tested on: T7, Rep nickase domain of porcine circovirus 2
# T7 sequence (Rep 2-116, printed without the tag): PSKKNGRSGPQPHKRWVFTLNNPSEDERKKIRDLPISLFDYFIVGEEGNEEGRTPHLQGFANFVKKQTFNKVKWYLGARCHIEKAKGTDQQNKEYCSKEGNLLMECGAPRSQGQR
# Method: as §1
# [8] = tested on: T8, Rep nickase domain of tomato yellow leaf curl virus
# T8 sequence (Rep 1-136, printed without the tag): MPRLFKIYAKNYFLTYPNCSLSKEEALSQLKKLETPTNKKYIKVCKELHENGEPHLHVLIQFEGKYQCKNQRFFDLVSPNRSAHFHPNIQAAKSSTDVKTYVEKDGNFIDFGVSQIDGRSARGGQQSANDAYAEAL
# Method: as §1
# [9] = tested on: T9, Rep nickase domain of wheat dwarf virus
# T9 sequence (Rep 1-137, printed without the tag): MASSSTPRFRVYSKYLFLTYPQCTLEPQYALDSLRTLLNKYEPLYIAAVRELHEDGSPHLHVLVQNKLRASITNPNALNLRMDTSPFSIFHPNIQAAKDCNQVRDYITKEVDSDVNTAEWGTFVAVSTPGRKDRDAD
# Method: as §1
Sequence,uncleaved DNA left (log2) [1],uncleaved DNA left (log2) [2],uncleaved DNA left (log2) [3],uncleaved DNA left (log2) [4],uncleaved DNA left (log2) [5],uncleaved DNA left (log2) [6],uncleaved DNA left (log2) [7],uncleaved DNA left (log2) [8],uncleaved DNA left (log2) [9]
TCGCTCC,-0.26,-0.0918,0.198,0.186,-0.172,0.579,-0.0273,-0.1,-0.113
GGTGGTA,0.0409,-0.049,0.47,1.05,0.066,1.88,0.177,0.039,0.111
GCATCTC,-0.0639,0.00652,-0.23,0.0164,-0.071,0.00203,-0.0258,-0.0973,-0.0871
GACGTCG,-0.0507,0.0375,-0.692,-0.381,-0.0655,-0.823,0.0715,0.0727,-0.0266
GGCGCGC,-0.172,-0.103,-0.11,-0.077,-0.1,0.082,-0.113,-0.171,-0.105
CAATCTG,0.00034,-0.115,-0.154,0.324,-0.0613,0.0628,0.0132,-0.0174,-0.0739
ATCGACT,0.129,0.0855,0.0723,0.522,0.0823,1.61,0.108,-0.025,0.0791
AGCACGT,-0.0155,0.0134,0.0393,0.43,-0.0644,0.784,0.0179,-0.0772,-0.0313
GGCGTAT,-0.0857,0.0119,0.336,1.1,-0.236,1.48,-0.0129,0.053,0.0177
CTCCACG,0.0656,0.0995,-0.739,-0.159,-0.0122,-1.11,0.102,0.0641,-0.0233
ACCATAA,0.0698,0.00303,-0.331,-0.344,0.0388,-1.12,0.179,-0.0138,-0.000663
AGTTTCT,-2.07,-0.463,-0.0241,-1.71,-0.212,-0.119,-3.65,-0.0194,-0.122
CCGAAAA,-0.053,-0.0788,0.0212,-0.116,0.0245,-0.439,0.0379,0.00351,0.118
CGATTGA,0.204,0.161,0.131,0.806,0.129,1.35,0.181,-0.00587,0.301
CTTTAAT,-3.04,-0.453,-0.0472,-1.46,-0.0375,-0.583,-3.68,0.00715,0.000495
TCTTAGT,-2.02,-0.134,-0.0619,-0.901,-0.0681,-0.913,-3.53,0.0439,-0.0521
TGGTCGA,0.127,0.0915,-0.134,-0.268,-0.0801,-0.726,0.134,0.0267,0.0712
TCGCGGT,-0.0286,-0.0712,-0.166,-0.271,-0.175,-0.288,-0.0887,-0.0408,-0.0549
GGTGTGT,0.0522,-0.105,0.352,0.846,-0.0442,1.09,-0.00388,-0.108,-0.0781
GATACAT,0.121,0.246,0.803,1.8,0.0805,2.04,0.301,0.118,0.273
GTGGGCA,0.0417,0.0409,0.867,1.86,0.154,2.31,0.241,0.0744,0.176
ATGGTGT,0.0308,-0.0595,0.0489,0.401,-0.171,0.565,0.00925,-0.19,-0.143
TCAACGA,0.0348,-0.0889,-0.138,-0.796,0.0722,-0.916,0.0446,-0.147,-0.0884
CGCGGCG,0.0065,-0.0996,-0.763,-0.0776,-0.139,-0.604,0.0787,-0.0788,-0.0981
AGTCGAA,0.0913,-0.0286,-0.0303,0.183,0.0141,-0.136,-0.48,-0.0925,-0.0173
GTATTAG,-0.0787,-0.062,-0.45,-0.544,-0.0785,-1.07,0.0574,-0.102,-0.1
CCTCTTA,-0.0379,0.0278,-0.112,-1.18,-0.121,-0.712,-0.129,-0.0303,-0.104
CGATGCG,0.000893,0.0168,-0.637,0.709,-0.0177,-0.342,0.068,-0.0991,-0.107
TTTCTTA,-0.0616,0.0267,0.261,-0.549,0.0834,0.216,-0.228,0.0443,-0.0558
GCTATCT,0.0287,0.176,0.11,-0.793,-0.00198,0.00509,-0.167,0.0951,0.0888
